This note sets out measurements from ChEMBL document CHEMBL4888484, “Replenishing the malaria drug discovery pipeline: Screening and hit evaluation of the MMV Hit Generation Library 1 (HGL1) against asexual blood stage Plasmodium falciparum ,using a nano luciferase reporter read-out” (2022).

What is called % Inhibition is the drop in the measured response relative to a control, in per cent.

Hit rate of the full screen: of about 150,000 compounds, about 540 (0.36%) showed an effect of 50% or more. The list shows a part of the results.

The test relates to Plasmodium falciparum. As to the kind of experiment: Primary screen in NF54 nanoGlo assay, in single point, at 2uM, 72h; a lower Z score goes with more inhibition. Type of test: functional, Erythrocyte. The conditions noted are these: timepoint 72 hour.
Consider `Cc1ccc(OCCNC(=O)c2ccc(CN3CCOCC3)cc2)c(C)c1`, for which the “% Inhibition” value was 8% and the Z score was -1.06.
As to `C#CCN(C)C(=O)c1ccc(N(C)C)nc1`, the “% Inhibition” value stood at 1% and the Z score is reported as -0.21.
As to `O=C1c2ccccc2CS(=O)(=O)N1Cc1ccccc1`, the “% Inhibition” value is given as -1% and the Z score is 0.13.
Take `O=C(NC(Cc1ccccn1)[C@H]1C[C@@H](O)C1)c1ccn2cnnc2c1` (some centres undefined): the “% Inhibition” value is on record as 3% and the Z score is listed as -0.42.
For `Cc1noc2nc(-c3c[nH]cn3)c(-c3ccccc3)cc12`, the “% Inhibition” value was 0% and the Z score was 0.06.
For `Cn1ncc(N2CC[C@H](CNC(=O)c3cccc(-c4ncc[nH]4)c3)C2)cc1=O` the same measures were 2% and -0.3.
For the compound `Cc1cccc([C@H]2C[C@@H]2C(=O)NCC(C(=O)O)c2ccc(F)cc2)c1` (some centres undefined), the “% Inhibition” value is -9% and the Z score was 1.17.
For `CCCc1ccc(CN2C[C@H](NC(=O)CO)[C@@H](C3CC3)C2)o1` the same measures were -18% and 3.13.
The matching figures for `CN(C)c1ncc(CN2CCO[C@H](c3ccc(Cl)cc3)C2)cn1`: 1% and -0.08.
On to `COC[C@@H](c1cccc(C(F)(F)F)c1)N(C)CC(=O)O`, for which the “% Inhibition” value is given as -5% and the Z score is given as 0.73.
For `CC(C)C(C)(C#N)NC(=O)CN1CCC2CCN(C)CC21` (centres undefined) the same measures were -14% and 2.04.
The matching figures for `COc1cccc(-c2ccc(N3CCC(NCc4ccncn4)CC3)cc2)c1`: -7% and 1.29.
The matching figures for `COCCN1C(=O)C[C@](CC(=O)N(C)Cc2ccc(F)cc2)(c2ccccc2OC)C1=O`: 10% and -1.25.
With `Cc1nc[nH]c1-c1nccn1Cc1cc2ccccc2[nH]1`, the “% Inhibition” value was -7% and the Z score turned out to be 1.34.
For `O=C(NCc1nc(C2CC2)no1)c1ccccc1OCc1ccccc1` the same measures were -11% and 1.65.
For `CC(C)[C@@H]1CCCN1CCN1C(=O)NC(C)(C)C1=O` the same measures were 4% and -0.56.
For the compound `COc1ccc(CC(=O)N2CCN(c3cc(-n4cccn4)ncn3)CC2)cc1`, the “% Inhibition” value is on record as 5% and the Z score is given as -0.79.
The matching figures for `Cc1nc(C(=O)NC[C@H](C)CN2CCCC2)c(Br)s1`: 0% and 0.05.
As to `CC1(CC(F)(F)F)CN(C(=O)c2cncnc2N)C1`, the “% Inhibition” value is -2% and the Z score turned out to be 0.27.
Consider `CC(NC(=O)C1COCCO1)c1nc2cc(Cl)ccc2[nH]1` (centres undefined), for which the “% Inhibition” value was -2% and the Z score is reported as 0.31.
For `CC(=O)N1CCc2cc(S(=O)(=O)[C@@H](C)CC(=O)NCCc3ccc(Cl)cc3)ccc21` the same measures were -1% and 0.09.
For `CC(=O)N(C)c1nc(CS(=O)(=O)c2ccc(Cl)cc2)cs1` the same measures were -17% and 2.27.
In the case of `CCn1nc(C)c(CCN(C)c2ccc(C(=O)O)cc2NS(=O)(=O)c2ccc(C)c(C)c2)c1C`, the “% Inhibition” value was 8% and the Z score is recorded as -1.3.
The matching figures for `Cc1nn(C)c(C)c1S(=O)(=O)N1CCC[C@H]1c1noc(COCc2ccccc2)n1`: 0% and 0.06.
The matching figures for `COc1cccc(Oc2nc(N3CCN(C)CC3)nc3c2CN(Cc2ccc(O)c(OC)c2)CC3)c1`: -11% and 1.24.
Consider `COc1ccnc(NC(=O)C#Cc2ccccc2)c1`, for which the “% Inhibition” value was found to be 1% and the Z score is on record as -0.11.
For `O=C(Cc1c(F)cccc1Cl)N[C@@H]1C[C@H]2C(=O)NCC(=O)N2C1` the same measures were 1% and -0.18.
With `O=S(=O)(N1CCC2(CCCO2)CC1)N1CCc2ccccc2C1`, the “% Inhibition” value was 3% and the Z score was -0.56.
On to `Cc1[nH]ccc1C(=O)N[C@@H](CC(C)(C)C)c1cccnc1`, for which the “% Inhibition” value was -7% and the Z score amounted to 1.43.
Consider `CC(C)Cc1ccc(C(=O)NCC2(O)CCS(=O)(=O)CC2)s1`, for which the “% Inhibition” value was -9% and the Z score is recorded as 0.94.
For `C[C@@H]1OCCO[C@@H]1C(=O)Nc1cc(C2CC2)nn1-c1ccccc1` the same measures were 11% and -1.45.
For `Cc1ccccc1Cn1ccnc1CN(C(=O)c1cccs1)C1CCCCC1` the same measures were -7% and 0.66.
For `CCCS(=O)(=O)N1CC(Oc2ccc(-c3noc(-c4ccncc4)n3)cc2)C1` the same measures were -27% and 5.01.
Turning to `CC(C)Oc1ccc(NC(=O)NC[C@@H]2C[C@H](c3ccccc3)CO2)nn1`, the “% Inhibition” value is on record as -5% and the Z score is on record as 0.52.
For `CC(C)Cc1nc(CN(C)C(=O)c2nn(C)c3c2CCCC3)no1` the same measures were -1% and 0.14.
For `O=C(N[C@H]1CCOC[C@@H]1Oc1ccc(CO)cc1)c1n[nH]c2ccccc12` the same measures were -5% and 0.96.
For `CCn1c(-c2ncccn2)nnc1N1CCN(S(C)(=O)=O)CC1` the same measures were -4% and 0.69.
Take `O=C(c1ccoc1)N1CCC[C@H](C(=O)N2CCN(C(c3ccccc3)c3ccccc3)CC2)C1`: the “% Inhibition” value is 37% and the Z score is recorded as -4.92.
Regarding `CCOc1ccc(C(=O)Nc2ccnn2[C@@H](C)C(C)C)o1`, the “% Inhibition” value turned out to be 3% and the Z score is reported as -0.45.
The matching figures for `CC(=O)c1cccc(CN2CCC[C@H](N(C)CCc3ccccn3)C2)c1`: -2% and 0.22.
The matching figures for `CCCS(=O)(=O)NCCCn1c(-c2ccc(C)cc2)nc2cccnc21`: -17% and 2.28.
The matching figures for `N#Cc1cccc(C(=O)N[C@H]2[C@H](O)[C@H](O)C[C@@H]2c2cccnc2)c1`: 14% and -1.69.
